Measured values: article PMC4336329 (PLoS ONE, 2015)
Out of some 310,000 compounds screened, about 14,000 (4.5%) showed an effect of 50% or more. The effect is printed as a negative number. The list shows a part of the results.

Biological target: human ether-à-go-go-related gene (hERG) potassium channel (human, UniProt Q12809)
Test: primary screen, population patch clamp on CHO cells stably expressing hERG
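Note: peak tail current of the secondary pulse compared with the same well before compound.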

Sequence of human ether-à-go-go-related gene (hERG) potassium channel (Q12809 whole entry, looked up): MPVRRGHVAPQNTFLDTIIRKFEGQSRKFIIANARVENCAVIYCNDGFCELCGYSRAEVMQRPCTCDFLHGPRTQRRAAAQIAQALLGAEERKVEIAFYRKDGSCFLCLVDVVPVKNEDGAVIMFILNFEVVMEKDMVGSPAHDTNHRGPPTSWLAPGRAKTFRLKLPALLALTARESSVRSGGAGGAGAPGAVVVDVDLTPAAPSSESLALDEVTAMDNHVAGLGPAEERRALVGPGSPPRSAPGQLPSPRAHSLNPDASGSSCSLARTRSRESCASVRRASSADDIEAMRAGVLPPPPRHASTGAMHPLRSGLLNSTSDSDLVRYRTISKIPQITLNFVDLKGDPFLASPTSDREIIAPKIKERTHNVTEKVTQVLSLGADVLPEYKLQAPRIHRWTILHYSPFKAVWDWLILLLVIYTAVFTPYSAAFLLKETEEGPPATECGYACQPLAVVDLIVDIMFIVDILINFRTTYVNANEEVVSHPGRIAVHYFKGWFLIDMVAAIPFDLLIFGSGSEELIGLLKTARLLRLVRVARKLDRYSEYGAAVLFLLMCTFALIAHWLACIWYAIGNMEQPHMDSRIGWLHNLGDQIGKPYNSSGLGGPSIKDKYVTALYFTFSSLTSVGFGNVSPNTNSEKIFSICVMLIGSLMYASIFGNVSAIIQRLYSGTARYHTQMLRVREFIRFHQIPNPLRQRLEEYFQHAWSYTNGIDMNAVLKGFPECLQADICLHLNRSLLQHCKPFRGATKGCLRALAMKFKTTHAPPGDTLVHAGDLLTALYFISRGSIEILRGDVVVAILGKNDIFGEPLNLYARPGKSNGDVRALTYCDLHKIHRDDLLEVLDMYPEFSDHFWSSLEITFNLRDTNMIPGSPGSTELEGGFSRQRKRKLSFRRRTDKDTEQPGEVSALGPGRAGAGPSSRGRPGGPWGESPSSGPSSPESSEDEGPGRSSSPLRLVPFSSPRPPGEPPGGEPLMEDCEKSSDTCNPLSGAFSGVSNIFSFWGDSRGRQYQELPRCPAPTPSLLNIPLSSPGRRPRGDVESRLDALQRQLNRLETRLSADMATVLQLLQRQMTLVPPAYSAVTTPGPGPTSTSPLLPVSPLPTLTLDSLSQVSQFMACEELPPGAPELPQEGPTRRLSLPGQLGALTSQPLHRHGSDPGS

Row | SMILES | hERG current change (%, negative = inhibition) at 10uM [%]
1 | COc1cc2c(cc1OC)C(C)N(Cc1ccc3c(c1)OCO3)CC2 (stereo not shown) | -3.76
2 | O=C(O)CCC(=O)Nc1cccc(-c2nc3ccccc3o2)c1 | 16.9
3 | O=C1N=C(N2CCCCC2)S/C1=C\c1ccc(Br)cc1 | 10.4
4 | COc1ccc(CNC(=O)CCc2nc3cc(S(=O)(=O)N(C)C)ccc3n2C)cc1OC | 14.3
5 | CCCCNC(=O)CN1CCC2(O)CCCCC2C1c1ccccc1OC (stereo not shown) | -0.712
6 | COc1cc2c(cc1OC)C(c1cccs1)N(C(=O)c1ccncc1)CC2 (stereo not shown) | -66.8
7 | Cc1ccc(-n2c(C)cc(/C=C3\NC(=O)NC3=O)c2C)c(C)c1 | -5.9
8 | CC(C)(C)n1nnnc1C(c1cccc(C#N)c1)N1CCC(Cc2ccccc2)CC1 (stereo not shown) | -8.52
9 | CC(=O)N1c2ccc(S(=O)(=O)N3CCCCC3)cc2CC1C (stereo not shown) | 11.1
10 | CCC(C)[C@H](NC(=O)NCc1cccc(OC)c1)C(=O)O (stereo partly shown) | -4.53
11 | Cc1cc(C)nc(NS(=O)(=O)c2ccc(NC(=O)c3ccccc3[N+](=O)[O-])cc2)n1 | 14.7
12 | Cn1c(CN2CCOCC2)c(C#N)c2ccccc21 | -19.1
13 | COc1ccc(-c2cn[nH]c2-c2ccc(OCc3ccccc3)cc2O)cc1OC | 17.3
14 | O=C(c1cc2c(s1)CCCC2)n1cccn1 | 6.42
15 | Cc1ccc(S(=O)(=O)N(CC(=O)N2CCC(C)CC2)c2ccccc2)cc1 | -26.4
16 | CCC(=O)Nc1ccc2oc(-c3cccc(C)c3)nc2c1 | -7.54
17 | Cc1ccc(C(=O)C2CCN(C(=S)NCC3CCCO3)CC2)cc1 (stereo not shown) | 29.7
18 | NS(=O)(=O)c1ccc(NC(=O)COC(=O)c2ccc(Cl)cc2[N+](=O)[O-])cc1 | -7.82
19 | COc1ccc(NC(=O)c2cccc(NC(=O)C(C)C)c2)c([N+](=O)[O-])c1 | 5.22
20 | O=C(CN1C(=O)NC(c2ccccc2)(c2ccccc2)C1=O)NCc1ccccc1 | -31
21 | Cc1[nH]nc2c1[C@@H](c1ccccc1[N+](=O)[O-])C(C#N)=C(N)O2 | 13.5
22 | O=c1[nH]cnc2ncc(-c3ccc(O)cc3)nc12 | 5.11

Row | SMILES | hERG current change (%, negative = inhibition) at 10uM [%]
23 | Cc1nc(SCC(=O)Nc2c(C)n(C)n(-c3ccccc3)c2=O)[nH]c(=O)c1C | 3.4
24 | Cc1c(NC(=S)NC(=O)c2ccco2)c(=O)n(-c2ccccc2)n1C | 1.44
25 | CCCCOc1ccc(Cl)cc1CSc1nncn1N | -1.87
26 | CCc1ccc(NC(=O)C2CCCN2S(=O)(=O)c2ccc3c(c2)n(C)c(=O)c(=O)n3C)cc1 (stereo not shown) | -46.8
27 | CCOC(=O)c1cccc(NC(=O)c2cncc(Br)c2)c1 | -17.3
28 | Cc1ccc(C)c(C(C)NC(=O)Cc2cccs2)c1 (stereo not shown) | 13.5
29 | COc1ccc(C(=O)NC(=S)Nc2cccnc2)cc1Cl | -5.85
30 | CN(C)Cc1nc2ccccc2c(=O)n1CC(=O)Nc1cccc(S(=O)(=O)N2CCOCC2)c1 | -14.4
31 | O=C(NC1CC1)C1CCN(C(=O)c2ccc(Cl)cc2Cl)CC1 | 7.57
32 | COc1ccc(C(=O)Oc2ccc(=O)n(-c3ccccc3)n2)cc1 | -13.5
33 | O=C(COc1ccc(Cl)cc1)N1CCN(Cc2ccc3c(c2)OCO3)CC1 | -52.6
34 | CCOC(=O)N1CCN(C(=O)c2cccc(N3C(=O)NC4CC3(C)Oc3ccc(Cl)cc34)c2)CC1 (stereo not shown) | -35.4
35 | COc1ccc(-n2nc(C(=O)NCC(=O)N3CCN(c4ccccn4)CC3)c3ccccc3c2=O)cc1OC | -6.11
36 | CC1(C)C(=O)NCCN1C(=O)CSc1nccc(-c2ccc(Br)cc2)n1 | 5.16
37 | O=C(Cc1ccc([N+](=O)[O-])cc1)N/N=C/c1ccc([N+](=O)[O-])o1 | -64.7
38 | C=CCn1c(CSCc2ccc(C)cc2)nnc1SCC(=O)NCc1ccccc1 | -44.1
39 | COc1cc(-c2cc(-c3nnco3)c3ccccc3n2)cc(OC)c1OC | 1.39
40 | Cn1nccc1NC(=O)Nc1cccc([N+](=O)[O-])c1 | 5.97
41 | Cc1ccc(SCCN)cc1C.Cl | 28.9
42 | CN(Cc1ccccc1)S(=O)(=O)c1ccccc1[N+](=O)[O-] | -5.27
43 | O=C(NCC(O)c1ccc2ccccc2c1)c1c(F)cccc1F (stereo not shown) | 11.8
44 | CC(NC(=O)C(=O)N1CCCCC1)C(c1cccs1)N1CCN(c2ccc(F)cc2)CC1 (stereo not shown) | -21.9

Row | SMILES | hERG current change (%, negative = inhibition) at 10uM [%]
45 | O=C(C1CC(=O)N(C2CCCC2)C1)N1CCN(c2cccc(Cl)c2)CC1 (stereo not shown) | -7.79
46 | CCN(CC)C(=O)N1CCN(C)CC1.O=C(O)CC(O)(CC(=O)O)C(=O)O | 23.2
47 | CCN(CC)S(=O)(=O)c1ccc2c(c1)nc(SC(C)C(N)=O)n2-c1ccc(OC)cc1 (stereo not shown) | -51.7
48 | COc1cccc2c1OC1(C)CC2/C(=C(\C)O)C(=O)N1 (stereo not shown) | 4.65
49 | CCOC(=O)C1CCN(C(=O)CN(c2cccc(C(F)(F)F)c2)S(C)(=O)=O)CC1 | -25.9
50 | CCOC(=O)CNC(=S)N(CCCN1CCCC1)Cc1cccs1 | -53.6
51 | CCn1c(=O)cc(OCC(=O)NC2CC2)c2ccccc21 | 12
52 | O=C(N1CCOCC1)N1CCN(S(=O)(=O)N2CCCCC2)CC1 | -2.05
53 | COc1cccc(C(=O)C2CCCN(Cc3cccc4c3OCO4)C2)c1 (stereo not shown) | -49.4
54 | CC(C)c1ccc(OCC(=O)NNC(=S)NC(=O)c2ccco2)c(Br)c1 | 3.09
55 | Cc1cccn2c(=O)nc(SCC(=O)N3CCCCCC3)nc12 | -19.9
56 | O=C(O)Cc1ccc(NS(=O)(=O)c2ccc3ccccc3c2)cc1 | -48.2
57 | CCN(C(=O)COC(=O)c1cc(-c2ccccc2)nc2c1c(C)nn2-c1ccccc1)C1CCS(=O)(=O)C1 (stereo not shown) | 21.5
58 | Cc1ccnc(SCc2cc(=O)c(OC(=O)c3ccco3)co2)n1 | 4.97
59 | COCCCN1CC(=O)N2C(c3ccccc3)c3[nH]c4ccccc4c3C[C@H]2C1=O (stereo partly shown) | -11.3
60 | Clc1ccc(OCc2nc(-c3ccccn3)no2)c(Br)c1 | 0.556
61 | CC(C)Sc1nc2c(cnn2-c2ccc(F)cc2)c(=O)[nH]1 | 0.854
62 | Cc1ccccc1NC(=O)c1cnc2ccccn2c1=O | -9.67
63 | O=S(=O)(Nc1ccc(C(F)(F)F)cn1)c1ccccc1 | 11.3
64 | Cc1c(C(=O)N2CCOCC2)oc2ccc(Br)cc12 | -23.7
65 | CC1(C)Cc2c(C#N)c(N)n(-c3ccccc3)c(=S)c2CO1 | 2.55
66 | COc1ccc(CN2CC(C(=O)NCCc3ccc(C)cc3)CC2=O)cc1 (stereo not shown) | -11.9

Row | SMILES | hERG current change (%, negative = inhibition) at 10uM [%]
67 | CCOC(=O)Nc1cccc(OCC(=O)Nc2ccccc2OC)c1 | -1.38
68 | Cc1ccc(NC(=O)CCNC(=O)Cn2ccc3ccccc3c2=O)cc1F | 24
69 | Cc1cccc(C(=O)N2CCN(c3ncnc4c3cnn4-c3ccccc3)CC2)c1 | -19.4
70 | COc1ccc(OCC(=O)NC(=S)Nc2ccc(S(=O)(=O)Nc3cc(C)on3)cc2)cc1 | 8.54
71 | CCCCOc1cccc(/C=C(\C#N)C(=O)NC2CC2)c1 | -0.258
72 | O=C(OCCOCn1cc(Br)c(=O)[nH]c1=O)c1ccccc1 | 1.66
73 | O=c1[nH]c(O)c(C=Nc2ccccc2Sc2ccccc2)c(=O)[nH]1 | 9.37
74 | Fc1ccccc1NC(=S)N1CCN(C/C=C/c2ccccc2)CC1 | -23.4
75 | Cc1ccc(C)c(N2CCN(C(=O)c3ccc(Cn4c(=S)[nH]c5ccc(N6CCOCC6)cc5c4=O)cc3)CC2)c1 | -5.3
76 | CCOc1ccc(S(=O)(=O)N2CCCC(C(=O)NCc3ccccn3)C2)cc1 (stereo not shown) | -5.54
77 | CN(C(=O)c1ccncc1)c1nnc(-c2cccnc2)s1 | 8.64
78 | CC(C)Oc1ccc(/C(O)=C2/C(=O)C(=O)N(CCN(C)C)C2c2cccs2)cc1 (stereo not shown) | -1.9
79 | O=NN1CCCCC1 | 16.5
80 | COC(=O)[C@H](C)NC(=O)Nc1ccccc1C(F)(F)F | 13.7
81 | COC(=O)c1ccc(CSc2nc3ccccc3c(=O)n2CC(C)C)o1 | -8.97
82 | CC1CCN(C2=NN3C(=N)/C(=C\c4ccc(OC(=O)c5ccco5)cc4)C(=O)N=C3S2)CC1 | 12.6
83 | CC(C)c1ccc(C2NC(=S)NC3=C2C(=O)CCC3)cc1 (stereo not shown) | 14
84 | CCn1cc(Cl)c(C(=O)Nc2ccc3c(c2)OCCO3)n1 | 18.4
85 | O=c1c2ccccc2nc(-c2ccc(Br)cc2)n1Cc1ccccc1 | -11.3
86 | CCOC(=O)C(=CN=C(N)Nc1nc2ccccc2o1)C(=O)OCC | 21.9
87 | O=C(NC1CC1)C1=C[C@H](c2c[nH]c3ccccc23)C[C@H](OCc2ccc(CO)cc2)O1 | -2.71
88 | COc1ccc(NC(=O)CSc2ccc(-c3cccs3)nn2)c(OC)c1 | 15.5
